Data reported in the supplement of paper PMC12582362.
Where a name gives a salt, the structure may show the parent alone. The campaign covered roughly 1,500 compounds. About 30 (2%) showed activity.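 How the source made its calls: active = robust z-score below -2; a few such results were not called.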 Some of the results follow.

tested on: optoTopBP1 Flp-In 293 T-REx (HEK293) cells; test: light-induced TopBP1 condensate (nuclear foci) count, plate-normalised robust z-score vs non-control wells; higher = more TopBP1 condensates (negative = condensation inhibitor), active = hit call of the paper; details: 10 µM; incubation time 2 h

Row | SMILES | light-induced TopBP1 condensate (z-score)
1 | O=c1[nH]c(=O)n([C@H]2C[C@H](O)[C@@H](CO)O2)cc1I [Idoxuridine] | inactive: 1.06
2 | Cc1cccc(N(C)C(=S)Oc2ccc3ccccc3c2)c1 [Tolnaftate] | inactive: -1.04
3 | CCN1CCCC1CNC(=O)c1cc(S(N)(=O)=O)ccc1OC (stereo not drawn) [Sulpiride] | inactive: 1.39
4 | COc1ccc(-c2ccc3cc(C(=O)O)ccc3c2)cc1C12CC3CC(CC(C3)C1)C2 [Adapalene] | inactive: -1.74
5 | Cc1ccc2c([nH]c(=O)c3c(=O)cc(C(=O)OCCC(C)C)oc32)c1C [Repirinast] | inactive: -0.432
6 | NCCc1ccc(O)c(O)c1 [Dopamine hydrochloride] | inactive: 0.311
7 | C[C@H](CS)C(=O)N1CCC[C@H]1C(=O)O [Captopril] | inactive: 1.17
8 | CN(Cc1cc(Br)cc(Br)c1N)C1CCCCC1 [Bromhexine hydrochloride] | inactive: 0.154
9 | CC1(C)O[C@@H]2C[C@H]3[C@@H]4C[C@H](F)C5=CC(=O)C=C[C@]5(C)[C@H]4[C@@H](O)C[C@]3(C)[C@]2(C(=O)CO)O1 [Flunisolide] | inactive: 0.645
10 | COc1ccc(CNc2nc(N3CCC[C@H]3CO)ncc2C(=O)NCc2ncccn2)cc1Cl [Avanafil] | inactive: 0.878
11 | Cc1c(Nc2ncccc2C(=O)O)cccc1C(F)(F)F [Flunixin meglumine] | inactive: 1.13
12 | CC[C@H](c1ccc(O)cc1)[C@@H](CC)c1ccc(O)cc1 [Hexestrol] | inactive: 0.346
13 | CC(C)(C)NC(=O)[C@H]1CC[C@H]2[C@@H]3CC[C@H]4NC(=O)C=C[C@]4(C)[C@H]3CC[C@]12C [Finasteride] | inactive: 0.181
14 | Nc1nc(N)c2nc(-c3ccccc3)c(N)nc2n1 [Triamterene] | inactive: -0.439
15 | CCCCOc1ccc(C(=O)CCN2CCCCC2)cc1 [Dyclonine hydrochloride] | inactive: -1.67
16 | Cn1nnc2c(C(N)=O)ncn2c1=O [Temozolomide] | inactive: -0.835
17 | CN1[C@@H]2CC[C@H]1C[C@@H](OC(=O)C(O)c1ccccc1)C2 (mixture of isomers) [Homatropine hydrobromide (R,S)] | inactive: 1.71
18 | OC(CCN1CCCC1)(c1ccccc1)C1CCCCC1 (stereo not drawn) [Procyclidine hydrochloride] | inactive: -0.795
19 | CC(CN(C)C)CN1c2ccccc2CCc2ccccc21 (stereo not drawn) [Trimipramine maleate salt] | inactive: 0.384
20 | CC(C)C(=O)c1c(C(C)C)nn2ccccc12 [Ibudilast] | inactive: 0.181
21 | C[N+](C)(C)C[C@H](O)CC(=O)[O-] [Levocarnitine] | inactive: 0.0352
22 | CC(C)(C)C(O)/C=C/c1ccc2c(c1)OCO2 (stereo not drawn) [Stiripentol] | inactive: 1.26
23 | CCN(CCCc1ccccc1)CCCc1ccccc1 [Alverine citrate salt] | inactive: 0.4

Row | SMILES | light-induced TopBP1 condensate (z-score)
24 | O=P(O)(O)C(O)(Cc1cccnc1)P(=O)(O)O [Risedronic acid monohydrate] | inactive: -0.826
25 | CCN(CC)C(=O)N1CCN(C)CC1 [Diethylcarbamazine citrate] | inactive: -0.531
26 | C=CC[N@@+]12CC[C@@]34c5ccccc5N5/C=C6/[C@H]7C[C@H]8[C@@]9(CC[N@@+]8(CC=C)C/C7=C/CO)c7ccccc7N(/C=C(/[C@@H](C[C@@H]31)/C(=C\CO)C2)[C@H]54)[C@@H]69 [Alcuronium chloride] | inactive: 0.0907
27 | CCCC(C(=O)OCCN(CC)CC)(c1ccccc1)c1ccccc1 [Proadifen hydrochloride] | inactive: -0.0477
28 | Clc1ccc(COC(Cn2ccnc2)c2ccc(Cl)cc2Cl)cc1 (stereo not drawn) [Econazole nitrate] | inactive: -1.01
29 | CO/N=C1\CN(c2nc3c(cc2F)c(=O)c(C(=O)O)cn3C2CC2)CC1CN (stereo not drawn) [Gemifloxacin mesylate] | inactive: -1.54
30 | Clc1ccccc1C(c1ccccc1)(c1ccccc1)n1ccnc1 [Clotrimazole] | inactive: 0.22
31 | O=C(O)c1cc(=O)c2c(OCC(O)COc3cccc4oc(C(=O)O)cc(=O)c34)cccc2o1 [Cromolyn disodium salt] | inactive: 0.475
32 | CC(=O)OC(C)C[N+](C)(C)C (stereo not drawn) [Methacholine chloride] | inactive: 0.247
33 | CCCCOc1ccc(CC(=O)NO)cc1 [Bufexamac] | inactive: -0.576
34 | Oc1c(Cl)cc(Cl)cc1Sc1cc(Cl)cc(Cl)c1O [Bithionol] | inactive: -0.488
35 | NC[C@H]1CC[C@H](C(=O)O)CC1 [Tranexamic acid] | inactive: 0.618
36 | C=CCc1ccccc1OCC(O)CNC(C)C (stereo not drawn) [Alprenolol hydrochloride] | inactive: -0.491
37 | Cc1ccc(O)c([C@H](CCN(C(C)C)C(C)C)c2ccccc2)c1 [Tolterodine tartrate] | inactive: -1.32
38 | Cc1c(O)cccc1C(=O)N[C@@H](CSc1ccccc1)[C@H](O)CN1C[C@H]2CCCC[C@H]2C[C@H]1C(=O)NC(C)(C)C [Nelfinavir mesylate] | inactive: -0.917
39 | CCSc1ccc2c(c1)N(CCCN1CCN(C)CC1)c1ccccc1S2 [Thiethylperazine dimalate] | inactive: -1.19
40 | CN(C)CCC(c1ccccc1)c1ccccn1 (stereo not drawn) [Pheniramine maleate] | inactive: 0.115
41 | CC(CCc1ccc(O)cc1)NCCc1ccc(O)c(O)c1 (stereo not drawn) [Dobutamine hydrochloride] | inactive: 1.03
42 | CNCC[C@@H](Oc1cccc2ccccc12)c1cccs1 [(R)-Duloxetine hydrochloride] | inactive: -1.75
43 | Nc1ccc(S(N)(=O)=O)cc1 [Sulfanilamide] | inactive: 0.361
44 | O=c1[nH]c(=O)n([C@H]2C[C@H](O)[C@@H](CO)O2)cc1/C=C/Br [Brivudine] | inactive: 0.27
45 | CCC(C)(C)c1ccc(CC(C)CN2C[C@@H](C)O[C@@H](C)C2)cc1 (stereo partly drawn) [Amorolfine hydrochloride] | inactive: -0.629
46 | CCOC(=O)c1ccc(C#Cc2ccc3c(c2)C(C)(C)CCS3)nc1 [Tazarotene] | inactive: -0.802

Row | SMILES | light-induced TopBP1 condensate (z-score)
47 | CC[C@]12CCCN3CCc4c(n(c5ccccc45)[C@@](O)(C(=O)OC)C1)[C@@H]32 [Vincamine] | inactive: -0.735
48 | CNC1(C)C2CCC(C2)C1(C)C (stereo not drawn) [Mecamylamine hydrochloride] | inactive: -0.0167
49 | CCC(C)(CN(C)C)OC(=O)c1ccccc1 (stereo not drawn) [Amyleine hydrochloride] | inactive: -0.0594
50 | CC(=C(CCO)SSCC1CCCO1)N(C=O)Cc1cnc(C)nc1N (stereo in doubt) [Fursultiamine Hydrochloride] | inactive: 1.42
51 | C=C(NC(=O)C(=C)NC(=O)c1csc(C2=N[C@@H]3c4csc(n4)[C@H]4NC(=O)c5csc(n5)[C@H]([C@](C)(O)[C@@H](C)O)NC(=O)[C@H]5CSC(=N5)/C(=C/C)NC(=O)[C@H]([C@@H](C)O)NC(=O)c5csc(n5)[C@]3(CC2)NC(=O)[C@H](C)NC(=O)C(=C)NC(=O)[C@H](C)NC(=O)[C@H]([C@@H](C)CC)N[C@@H]2C=Cc3c([C@H](C)O)cc(nc3[C@H]2O)C(=O)O[C@@H]4C)n1)C(N)=O [Thiostrepton] | active: -3.34
52 | Cn1c(=O)c2c(ncn2CC(O)CO)n(C)c1=O (stereo not drawn) [Diprophylline] | inactive: -0.324
53 | NC(=O)c1cccnc1 [Nicotinamide] | inactive: -0.954
54 | CC(C)(Oc1ccc(C2CC2(Cl)Cl)cc1)C(=O)O (stereo not drawn) [Ciprofibrate] | inactive: 0.844
55 | CC1=C(C(=O)O)N2C(=O)[C@@H](NC(=O)[C@H](N)c3ccc(O)cc3)[C@H]2SC1 [Cefadroxil] | inactive: 0.727
56 | NS(=O)(=O)c1cc2c(cc1Cl)NC(Cc1ccccc1)NS2(=O)=O (stereo not drawn) [Benzylhydrochlorothiazide] | inactive: -0.404
57 | C=CCN1CCCC1CNC(=O)c1cc2nn[nH]c2cc1OC (stereo not drawn) [Alizapride hydrochloride] | inactive: 0.667
58 | CCOC(=O)C1=C(C)NC(C)=C(C(=O)OC)C1c1cccc([N+](=O)[O-])c1 (stereo not drawn) [Nitrendipine] | inactive: -0.152
59 | CCn1cc(C(=O)O)c(=O)c2cc(F)c(N3CCNCC3)cc21 [Norfloxacin] | inactive: -0.0857
60 | O=C(c1ccc(OCCN2CCCCC2)cc1)c1c(-c2ccc(O)cc2)sc2cc(O)ccc12 [Raloxifene hydrochloride] | inactive: -0.372
61 | CC(CN1c2ccccc2Sc2ccccc21)N(C)C (stereo not drawn) [Promethazine hydrochloride] | inactive: -0.734
62 | NS(=O)(=O)c1cc2c(cc1C(F)(F)F)NC(Cc1ccccc1)NS2(=O)=O (stereo not drawn) [Bendroflumethiazide] | inactive: 0.363
63 | CCc1oc2ccccc2c1C(=O)c1ccc(O)cc1 [Benzarone] | inactive: 1.57
64 | COc1cc(N)c(Cl)cc1C(=O)NC1CCN(Cc2ccccc2)CC1 [Clebopride maleate] | inactive: -0.227
65 | CCN1CCCC1CNC(=O)c1cc(S(=O)(=O)CC)c(N)cc1OC (stereo not drawn) [Amisulpride] | inactive: -0.28
66 | Nc1nc(N)nc(-c2cc(Cl)ccc2Cl)n1 [Irsogladine maleate] | inactive: 0.8
67 | COc1c(O)cc2c(c1O)[C@@H]1O[C@H](CO)[C@@H](O)[C@H](O)[C@H]1OC2=O [Bergenin] | inactive: -0.755
68 | CC(C)[C@H]1CC[C@H](C(=O)N[C@H](Cc2ccccc2)C(=O)O)CC1 [Nateglinide] | inactive: -0.706
